Laboratory results reported in ChEMBL document CHEMBL4888484, “Replenishing the malaria drug discovery pipeline: Screening and hit evaluation of the MMV Hit Generation Library 1 (HGL1) against asexual blood stage Plasmodium falciparum ,using a nano luciferase reporter read-out” (2022).
About 540 (0.36%) of roughly 150,000 compounds showed an effect of 50% or more. This is one part of the list.

What follows are compounds tested on Plasmodium falciparum (assay: Primary screen in NF54 nanoGlo assay, in single point, at 2uM, 72h; a lower Z score goes with more inhibition). Details: timepoint 72 hour.
Format: functional, Erythrocyte

| Compound | % Inhibition | Z score |
| --- | --- | --- |
| O=C(Cc1cnc2ccccc2c1)N1CCC([C@@H]2CCCO2)CC1 | -14% | 1.95 |
| COCCCNC(=O)c1cc2cc(S(=O)(=O)N(C)C)ccc2n1Cc1ccncc1 | -14% | 1.98 |
| CCCN1C(=O)N[C@@H](Cc2ncnn2Cc2ccc(OC)cc2)C1=O | -8% | 1.2 |
| Cc1ccc2c(c1)OC[C@H](CC(=O)N1CCCCC1)N2Cc1ccc(F)cc1 | -2% | 0.34 |
| CCOC(=O)c1nnsc1NC(=O)N1CCCCC1 | -1% | 0.15 |
| COc1cc(NCCc2nc(N)cc(O)n2)ncn1 | -3% | 0.54 |
| CC(C)=CCC[C@@]1(C)CCC(=O)N(CCc2c[nH]c(=O)[nH]c2=O)C1 | -13% | 2.59 |
| Cc1ccc2c(c1)c1c(n2C[C@H](O)CN2CCCCC2)C(=O)CCC1 | 9% | -1.46 |
| C[C@H]1CN(c2nc(-c3ccccc3)ns2)CCCO1 | 0% | -0.05 |
| O=C(CCc1ccc2c(c1)OCO2)N1CCN(C(=O)c2ccccc2)CC1 | -18% | 2.03 |
| COC(=O)C12CCC(C(=O)NC[C@H]3CCCOC3)(CC1)CC2 | 33% | -4.72 |
| CC[C@@H](C(=O)NCCn1nc(C)nc1C)n1cccn1 | -5% | 0.82 |
| Cc1cc2c(cc1S(=O)(=O)N(C)Cc1nnc[nH]1)OCO2 | 1% | -0.15 |
| O=C(CN1CCNC(=O)[C@@H]1c1ccc(OC(F)(F)F)cc1)NC1CC1 | 2% | -0.29 |
| c1cc2c(cc1OCc1noc3c1CCCC3)OCCO2 | -16% | 2.14 |
| C=CCN(CC=C)S(=O)(=O)c1cc(F)ccc1OC | -8% | 1.67 |
| Cc1[nH]ccc(=O)c1Cc1c(Cl)cccc1Cl | 40% | -5.13 |
| O=C(NCc1cccs1)C1CCN(c2cnc(N3CCCC3)nc2)CC1 | 2% | -0.39 |
| Cc1c(C(=O)N2CCN(C(=O)c3ccco3)CC2)cccc1-n1nnc2cccnc21 | 0% | -0.02 |
| COc1ccc2nc(CN(C)C3(CO)CCOCC3)sc2c1 | -15% | 2.02 |
| COc1ccccc1NC(=O)[C@@H](C)C1CCN(C(=O)Nc2ccccc2)CC1 | -5% | 0.9 |
| CCc1nnc(-c2cccn2CC(=O)Nc2ccc(OC)cc2)o1 | -18% | 1.86 |

| Compound | % Inhibition | Z score |
| --- | --- | --- |
| O=C1C[C@H](c2noc(C3CCC3)n2)CN1c1ccccc1 | -17% | 2.05 |
| Cc1cnc(C)c(NCC(C)(C)N2CCN(C)CC2)n1 | -8% | 1.14 |
| O=C(Nc1cc(C(F)(F)F)ccc1Cl)[C@H]1CCCN(c2cc(C3CC3)ncn2)C1 | -4% | 0.82 |
| COCC(=O)N(C1CCOCC1)[C@H]1CCCN(C(=O)c2ccc(OC)cc2C)C1 | 31% | -3.51 |
| O=C(c1cccc(O)c1OC(F)(F)F)N1CCC=C(F)C1 | 0% | 0.01 |
| O=C(c1ccc(Cl)c(Cl)c1O)N1CCCN2CCC[C@H]2C1 | -2% | 0.36 |
| O=S(=O)(N1CCOCC1)N1CCC[C@H]1c1ccncc1 | 0% | 0.01 |
| O=C(c1ccc(-c2ccco2)nc1)c1ccco1 | -22% | 3.25 |
| C[C@H](NS(=O)(=O)c1ccc(F)cc1)C(=O)NC1CCN(CC(=O)Nc2ccccc2)CC1 | 0% | 0.02 |
| Cc1noc(C(C)NC(c2ccccc2)C2CCC2)n1 (configuration not stated) | -9% | 1.07 |
| Cc1nnc(N2CC(C)OC(C)C2)s1 (configuration not stated) | -18% | 2.36 |
| C[C@H](NC(N)=O)C(=O)NCCCc1nc2c(s1)CCCC2 | -10% | 1.89 |
| CN1CCO[C@@H](CNC(=O)c2cn[nH]c2)C1 | -19% | 2.17 |
| CCc1noc(CNC(=O)C[C@H]2CN(C(C)C)CCO2)n1 | -7% | 0.87 |
| Cc1nn(-c2nccs2)cc1Br | 0% | -0.08 |
| COc1cc2c(cc1CN1CC=C(C)CC1)OCCCO2 | -12% | 2.27 |
| O=C(O)[C@H]1CCCN(C(=O)c2nn(-c3cccc(C(F)(F)F)c3)c3c2CCC3)C1 | -10% | 0.9 |
| C[C@@H](NC(=O)c1cn(C)nc1C1CC1)c1ncc[nH]1 | -1% | 0.13 |
| Cc1ccc2cc(-c3nccn3CCN(C)C)c(N3CCOCC3)nc2c1 | 11% | -1.46 |
| CCN(C)c1nc(N2CCN(c3ccc(C)cc3)CC2)nc2c1CN(C(=O)c1ccccc1OC)CC2 | 8% | -1.04 |
| CCOC(=O)c1ncn2c1CN(C(=O)OC(C)(C)C)CC2 | -10% | 1.33 |
| O=C1NCCCCCCN(C(=O)Nc2ccccc2F)[C@H]2CCCC[C@@H]12 | -4% | 0.52 |

| Compound | % Inhibition | Z score |
| --- | --- | --- |
| CCn1ncc(NC(=O)c2c(F)cccc2F)c(N2CCOCC2)c1=O | 2% | -0.29 |
| CC(=O)OC(C)(C)C(=O)N1CC[C@H](Oc2cccc(C)n2)C1 | -10% | 1.99 |
| Cc1noc(C)c1CC(=O)NC1CCCCCCC1 | -12% | 2.06 |
| Cc1cc(C)n(C(=O)Cc2nnc(-c3cccs3)o2)n1 | -7% | 0.85 |
| O=C1N(CC2CC2)CCC[C@@]12CCN(Cc1nc3c(s1)CCCC3)C2 | -5% | 0.81 |
| Cc1cc(C(=O)N[C@H]2C[C@H](c3nnc(CO)n3C3CC3)C2)ccc1F | -18% | 2.27 |
| Brc1cccc(C2(c3noc(-c4cnccn4)n3)CCOCC2)c1 | 35% | -3.97 |
| Cc1ccc(S(=O)(=O)N2CCC(C(=O)C3C(=O)CCCC3=O)CC2)cc1 | 0% | -0.04 |
| CCC1C(C)CCN1CC(=O)N1CCOC(C)C1 (configuration not stated) | 10% | -1.17 |
| CN1CCN(c2ccc(-c3cccc4cccnc34)nn2)CC1 | -9% | 1.21 |
| O=C(NCc1ccccc1)[C@]1(F)CCN(S(=O)(=O)Cc2cccc(F)c2)C1 | -3% | 0.57 |
| O=C(NCc1cccnc1-c1ccccc1)c1ccccc1F | 5% | -0.62 |
| NC(=O)C1(NC(=O)c2ccnc(OCC(F)F)c2)CCOCC1 | 10% | -0.91 |
| Nc1nnc(CNC(=O)[C@H]2C[C@@H]2c2ccccc2)s1 | -7% | 1.38 |
| CCN1C(=O)NC(=O)C12CCN(Cc1cnc(N3CCOCC3)nc1)CC2 | -9% | 1.76 |
| CNC1CC[C@H]2[C@@H]3CC[C@H]4C[C@@H](O)CC[C@]4(C)[C@H]3CC[C@]12C (some centres not stated) | 1% | -0.23 |
| CCc1nc(O)c(C(=O)N2CCN(C)c3ncccc32)cc1C | 3% | -0.41 |
| CCCc1cc(N2CC[C@]3(OC)CC[C@@H](OCC4CC4)C[C@H]23)nc(C)n1 | -15% | 1.36 |
| C=CCC[C@@H](CN(C)Cc1cccnc1)Oc1ccc(N(C)C)nn1 | -15% | 1.32 |
| Cc1cc(-c2ccc(CN3CCCCC3)cn2)[nH]n1 | 1% | -0.13 |
| Cc1nc(CC(=O)N2C[C@H](C(=O)O)[C@@H](c3ccc(F)cc3)C2)cs1 | 3% | -0.73 |
| CC(C)c1nn(C)cc1-c1noc(C2(O)CCCC2)n1 | -12% | 1.88 |

| Compound | % Inhibition | Z score |
| --- | --- | --- |
| CCC(=O)NS(=O)(=O)c1c(C)cccc1Cl | -9% | 0.94 |
| Cc1nn(C)c(Cl)c1[C@H]1CC(=O)Nc2c1cnn2-c1ccccc1 | -5% | 0.93 |
| CCNS(=O)(=O)CCNC(=O)N1CCCc2cccc(Cl)c21 | -8% | 0.7 |
| Cc1c(Cl)ccc2c1NC(=O)[C@]21N[C@@H](CCC(N)=O)[C@H]2C(=O)N(c3cccc(Cl)c3)C(=O)[C@H]21 | 6% | -0.75 |
| Cc1cc(C)nc(NC(=O)c2cc(C)on2)n1 | -15% | 1.69 |
| c1ccc2[nH]c(C3CCN(c4nn5cnnc5c5ccccc45)CC3)nc2c1 | -15% | 2.33 |
| COc1ccc(C(=O)N2CCN(C3CC(OCc4ccccc4)C3)CC2)cc1 (configuration not stated) | -10% | 1.23 |
| CC(=O)Nc1nc(CN(C(C)C)C2CC2)cs1 | -7% | 0.72 |
| CC1(N2CCOCC2)CCN(C(=O)c2ccnn2C(F)F)CC1 | -2% | 0.31 |
| O=C(NCc1ccccc1CN1CCC[C@@H]1CO)Nc1cccc2[nH]ccc12 | 6% | -1.15 |
| CCCCC(C)C(=O)N1CCCCC1Cn1ccnn1 (configuration not stated) | -8% | 0.83 |
| CC(=O)NCCC(=O)N1CCC([C@H](Cc2ccccc2C)N(C)C(=O)Cn2cccn2)CC1 | -12% | 1.56 |
| Cc1nonc1CN1CC[C@H](O)CC(C)(C)C1 | -11% | 1.51 |
| CC(C)CC[C@H](C)NC(=O)CS(=O)(=O)Cc1ccc(F)cc1Cl | 6% | -0.84 |
| CCc1ccc([C@@H]2CNCCN2C(=O)c2cn(C)cn2)cc1 | -4% | 0.54 |
| CC(C)(C)c1ccc(C(=O)N[C@H]2C[C@@H]3CC[C@H]2C3)cc1 | 41% | -4.59 |
| C=CCOC(=O)N1CCN(C(=O)OCC=C)CC1 | 4% | -0.53 |
| CC(=O)N1CCCC[C@H]1c1nc(-c2ccc3[nH]c(C)c(C)c3c2)no1 | -11% | 2 |
| O=C(CCC1CCCC1)Nc1nc(-c2ccccc2)cs1 | 12% | -1.76 |
| O=C(Nc1ccc(CC(=O)N2CCc3ccccc32)cc1)[C@H]1CCOC1 | -6% | 0.66 |
